# Laboratory results published in the RNAGym collection of RNA variant scans (doi:10.1073/pnas.2313332121).
# Variants at the floor of the assay are shown more often than the library holds them.
# B1: TPR 5TU (parent)
# chain: GGAUCUUCUCGAUCUAACAAAAAAGACAAAUCUGCCACAAAGCUUGAGAGCAUCUUCGGAUGCAGAGGCGGCAGCCUUCGGUGGCGCGAUAGCGCCAACGUUCUCAACUAUGACACGCAAAACGCGUGCUCCGUUGAAUGGAGUUUAUCAUG
# Variants of: B1
# Assay: polymerase ribozyme fitness, log enrichment relative to wild type (log ratio); higher = more active; in vitro selection for triplet polymerase activity
# In short: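 Frozen incubation at −7 °C formed the core of a single, triplicate in vitro selection round applied to PCR-built, transcribed mutant libraries of each subunit of a heterodimeric triplet polymerase ribozyme. Extended constructs were gel-excised, captured with streptavidin beads and amplified by RT-PCR, and input and output libraries were Illumina-sequenced with a filter of ≥10 input reads and ≥1 read per output. Fitness is the logarithm of genotype enrichment relative to wild-type enrichment, with inverse-variance-weighted replicate averaging, and the logarithm is base 2.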
row,Variant,polymerase ribozyme fitness (log ratio)
1,C27U C76G G143U,≤ -4.2
2,A28C A52C C54G A91G C125U,≤ -4.2
3,C27G G59C G92A C95G C105G,≤ -4.2
4,C27A C85U U101A,≤ -4.2
5,C27G G50U C57A G86U C87A C93G,≤ -4.2
6,C27G U56G,≤ -4.2
7,C27G C43G,≤ -4.2
8,A28G A29U A52C A91G U127A,≤ -4.2
9,C27A A49C G59C G74C G136U,≤ -4.2
10,C27A U44G G50U G65A G86U C96A,≤ -4.2
11,A28C G42A U90C G94C A98C,≤ -4.2
12,A26U U61A U90G C99U G124U,≤ -4.2
13,A28C C54U C57U U90G C95G A120U U145A U148G,≤ -4.2
14,A28C U45A G88A C96A G100A G143A,≤ -4.2
15,C27U G58A G59C C99U U102G A120C C125U,≤ -4.2
16,C27G A91U G94A,≤ -4.2
17,C27G G42A C51A C87G A91G G112A,≤ -4.2
18,A26U U134A,-3.96
19,A28G A29U A49U G58C G62U C87G C123G,≤ -4.2
20,C27U G70A G92C G141C,≤ -4.2
21,C27A A60G C103G,≤ -4.2

row,Variant,polymerase ribozyme fitness (log ratio)
1,C27A G42C C99U A113U U146G,≤ -4.2
2,A28C A47C C132U,≤ -4.2
3,C27G A41C A47U C54U G59A U144G,≤ -4.2
4,A28G A37U A39C C149U,≤ -4.2
5,A28C A41U G42A C57U G59A G88C C103U A106C G126A G133A U139G A142C,≤ -4.2
6,C27G A137U,≤ -4.2
7,C27G A49C G59C C76G,≤ -4.2
8,C27U A41U U77G U78G G84A A89C C93A,≤ -4.2
9,C27U C35U G46A G80A C85A,≤ -4.2
10,C27U A39U U53A C93U,≤ -4.2
11,C27G C32G U45A G65A G92A A106U A122G A137C A138U G152A,≤ -4.2
12,C27A U61A G65A C75U A106U U127A,≤ -4.2
13,A28C A41C A64U G88U C95A C105U,≤ -4.2
14,A28C A52G C76G A91U U146G,≤ -4.2
15,A26U U56A U61A C69G G94A C96A A150U,≤ -4.2
16,C27U A66G C75A G86U G100C A121U A150C,≤ -4.2
17,C27U A60G U90G G117A A150G,≤ -4.2
18,C27G G42U G92C,≤ -4.2
19,C27U C85A A91U G143A,≤ -4.2
20,A28C A30U U102A A138C U146C A150U,≤ -4.2
21,C27U G68U G74U U77C G80C U104C C116G,≤ -4.2

row,Variant,polymerase ribozyme fitness (log ratio)
1,C27G G81C U151A,≤ -4.2
2,C27G A29C C93U G141C,≤ -4.2
3,A28C A47C G62C C108G A122C,≤ -4.2
4,C27U G50C G71C G86A C99A U130G C132U,≤ -4.2
5,C27U C63U C76U G81C U101G U146G,-3.39
6,A28C U55G U56A G133U,≤ -4.2
7,C27G C96G A106G C131G,≤ -4.2
8,C27G C43U G71U A91C A137G,≤ -4.2
9,C27A A47U U56A C63G G80A U90C C96G U146G,≤ -4.2
10,C27G G58C G92A U102G C131G A150U,≤ -4.2
11,C27G U53G C95U G100A,≤ -4.2
12,C27G U45A G48U U53A C75U A106U C131G U134C A137G,≤ -4.2
13,C27G C32G C36G A73G C93G U135A,-4.18
14,C27A A28G C43A G58C C95U C105G,≤ -4.2
15,C27U C43U C79G C93A,≤ -4.2
16,A28G A37C C95G,≤ -4.2
17,A28C C51U G58C A73G A97G A107U C118A U146C,≤ -4.2
18,A28C C93U A98G A107C,≤ -4.2
19,A28C C87A,≤ -4.2
20,A28C A52G U56A G62C C85U U148A,≤ -4.2
21,C27U A91U A113U C125G A138G,≤ -4.2

row,Variant,polymerase ribozyme fitness (log ratio)
1,C27U A37C G59U G92C G117C,-3.65
2,C27U A47C G86A G88U G92A U144C,≤ -4.2
3,A28G A29C C85G,≤ -4.2
4,C27G A29C A66G C95U,≤ -4.2
5,C27A A37C C43U G70A C87A,≤ -4.2
6,C27G C36G C85U,≤ -4.2
7,C27G A40U C54U G83U U111C C118A G133A,≤ -4.2
8,A28C C38U G133U,≤ -4.2
9,C27U A41G U44C C54G C95U A97U,≤ -4.2
10,C27U U90G A98G A107C C116A U135C,≤ -4.2
11,C27G C85A G92A C96A A106U C123U,≤ -4.2
12,A28C C76G G86A A147U,≤ -4.2
13,C27U C43A U101G C118A,≤ -4.2
14,C27U C57U G94A C95A G143A,≤ -4.2
15,C27G A28G A40C C85U C105U U146A,≤ -4.2
16,C27G G83A,-4.12
17,C27G G71U C72A C95U,≤ -4.2
18,C27G G80A G81C,-4.11
19,A26U U55A C79A U90A U127G U146A,≤ -4.2
20,C27G A28G A47C C79U G94C C105A,≤ -4.2
